# Test results published in the supplement of paper PMC3334620.
# Over roughly 33,000 sequences, “E-score (-0.5 to 0.5)” has its median near -0.012; the highest 2% begin near 0.29. Some of the results follow.
# Target: T1, Ybr033w (UniProt P38073)
# T1 sequence: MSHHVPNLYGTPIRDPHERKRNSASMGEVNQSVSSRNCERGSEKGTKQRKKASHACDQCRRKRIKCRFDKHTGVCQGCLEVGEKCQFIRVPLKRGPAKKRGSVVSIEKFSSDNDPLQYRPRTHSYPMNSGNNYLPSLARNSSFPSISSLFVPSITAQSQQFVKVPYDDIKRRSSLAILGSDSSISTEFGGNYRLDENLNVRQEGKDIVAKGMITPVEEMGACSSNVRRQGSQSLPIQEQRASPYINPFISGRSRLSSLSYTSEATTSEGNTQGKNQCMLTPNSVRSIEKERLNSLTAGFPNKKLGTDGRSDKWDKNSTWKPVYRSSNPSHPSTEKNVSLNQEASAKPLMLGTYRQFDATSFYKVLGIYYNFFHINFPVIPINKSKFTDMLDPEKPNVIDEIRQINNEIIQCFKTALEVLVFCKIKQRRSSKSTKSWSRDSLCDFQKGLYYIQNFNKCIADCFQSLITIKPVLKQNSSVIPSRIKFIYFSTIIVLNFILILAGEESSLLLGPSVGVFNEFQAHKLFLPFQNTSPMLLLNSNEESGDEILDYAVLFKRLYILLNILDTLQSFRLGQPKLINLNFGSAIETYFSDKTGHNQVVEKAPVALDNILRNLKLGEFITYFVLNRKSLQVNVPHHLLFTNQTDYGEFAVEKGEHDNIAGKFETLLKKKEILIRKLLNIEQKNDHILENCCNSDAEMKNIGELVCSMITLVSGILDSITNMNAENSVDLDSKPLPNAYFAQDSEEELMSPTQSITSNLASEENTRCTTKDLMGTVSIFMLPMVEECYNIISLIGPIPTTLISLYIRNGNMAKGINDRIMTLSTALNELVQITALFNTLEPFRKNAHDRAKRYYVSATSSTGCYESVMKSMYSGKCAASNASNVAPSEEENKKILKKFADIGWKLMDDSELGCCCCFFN
# Experiment: PBM E-score (8-mer binding enrichment) (E-score (-0.5 to 0.5)); higher = stronger / more preferred TF binding; most listed sequences are background and not binding sites
# Conditions: protein concentration: 200 nM; construct: GST-full length
# Procedure, shortened: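 PURExpress in vitro transcription/translation supplied GST-tagged yeast transcription factors, either full-length or DNA-binding domain. Applied at about 100-200 nM to universal all-10-mer Agilent arrays double-stranded by primer extension, the bound protein was detected with fluorescent anti-GST. E-scores, modified Wilcoxon-Mann-Whitney statistics, were given by the Universal PBM Analysis Suite to ungapped eight-base words pooled with their reverse complements after masliner normalisation.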
row,Sequence,PBM E-score
1,GACGGACA,-0.00901
2,GGGATCAA,0.242
3,ATTATTTC,0.332
4,AAGTAATT,0.331
5,AGGCCGTG,-0.048
6,CACAACGC,-0.133
7,CCTCCCAG,-0.356
8,AGTAGCTA,0.17
9,CTATCCAG,0.062
10,GAATGCGA,0.0817
11,GTTTCGGA,0.123
12,GGTAGCAC,-0.289
13,AGCATACA,0.163
14,CATGCGCC,-0.0898
15,AATTGCAA,0.177
16,CCCAGCGC,-0.256
17,AATTGATG,0.309
18,ATGACGTC,-0.0537
19,AACAGGTT,-0.00908
20,CAATCAGC,-0.0856
21,AGTTCATG,0.208
22,AGGAGAAT,0.134
23,ACTGCCAA,0.013
24,AGTTGATC,0.271
25,AGAATATC,0.0705

row,Sequence,PBM E-score
1,ACGAACGA,-0.0121
2,AAGGTCTC,-0.0822
3,ATCTAAAC,-0.0292
4,GCAACGAA,0.169
5,AACCCCTG,-0.328
6,TTCGCAAA,0.225
7,AGACGTGA,-0.0528
8,CCGATAGG,-0.0168
9,AACTGAGC,-0.123
10,ATCAATGG,0.0453
11,CGTCATGC,-0.168
12,GTTTGTGA,-0.00211
13,AGACATGG,-0.0858
14,CTTCGTAC,-0.103
15,GAATCCGA,-0.108
16,GATGTGGA,0.193
17,AGGTGAAC,-0.0473
18,ACCTAACT,0.152
19,CTACAAAC,0.152
20,ATCATTCC,0.203
21,CCTCAACG,-0.146
22,GACCCCCA,-0.428
23,CTAGCCAG,-0.145
24,AAGCACAA,0.237
25,CAGCATTA,-0.059

row,Sequence,PBM E-score
1,AATCTCGC,0.167
2,AACTTTTG,0.084
3,GGCTATAC,-0.115
4,AAGGAGAG,-0.212
5,GCAATTAA,0.138
6,ACGTGATC,0.0816
7,ATGTTCGG,-0.00221
8,CAAACATA,0.0885
9,AGACCAAA,0.0316
10,CTATACTA,0.0424
11,AACAGTTG,-0.0235
12,ACCCGCCT,-0.178
13,ATTAGCGC,0.0942
14,AAGGACTC,-0.139
15,AAACGTAG,-0.0105
16,CGGAAACG,-0.0471
17,AGTGAGGG,-0.273
18,CTCCAGTC,-0.134
19,ACCTTTTG,-0.0505
20,ACGGCATA,0.124
21,ATCCACTC,0.215
22,TCGAGCCA,-0.142
23,CCTGGTTA,-0.0245
24,ATATCCGG,0.164
25,ACAAATTG,0.0817

row,Sequence,PBM E-score
1,TCTCAGCA,-0.128
2,GTACGCGA,-0.106
3,GCTATCAC,0.0018
4,TGGCCACA,-0.0383
5,AGTAATCA,0.0803
6,ATCCGTTA,0.282
7,AGGATGCA,-0.0489
8,GAACGCAC,0.0399
9,ACGTCCTA,-0.0749
10,CAAAGACA,0.0541
11,TATTCGGA,0.248
12,TGGGCGAA,-0.00265
13,CGACCGAC,-0.109
14,GAACCGGA,0.152
15,CGCTGGGC,-0.235
16,ACAAATAA,0.265
17,CCACTCGC,-0.125
18,CAGTCGGG,-0.172
19,TACGCACA,0.0143
20,GGACCTGA,-0.203
21,AAAGCTAA,0.0966
22,ATGCAGGG,-0.108
23,AGGTCCGC,-0.352
24,CGATCGCA,0.0381
25,CTCTGAAC,-0.0896

row,Sequence,PBM E-score
1,CGGATGAC,-0.124
2,CGCATTGA,0.0944
3,ATTCAGGG,-0.0016
4,CGTATTAC,0.114
5,GAGTTTAA,0.142
6,GACCCTAA,-0.03
7,CGCTTGAC,-0.141
8,AGGGGGAA,-0.298
9,AATCTAGT,0.214
10,ACTTCTTC,0.149
11,GAGCAAGC,-0.255
12,AACTACAG,0.112
13,CCTGCTGA,0.101
14,CCCCTCTA,-0.246
15,AAGGTCAC,-0.0509
16,TCAGAAAA,0.0198
17,TACGGTGA,0.0707
18,CGCCCTCC,-0.299
19,AGCGGGCC,-0.242
20,CTCTGCCC,-0.108
21,AAGGACTA,-0.0585
22,GCCAGGGC,-0.357
23,CGTTCACA,-0.031
24,CTCAGCAG,-0.134
25,AAGGTTGA,0.205

row,Sequence,PBM E-score
1,CCGAACAA,0.0727
2,CACCAGGA,0.0347
3,CCCACTCG,-0.167
4,ACCTTTCC,0.0278
5,ATTAGTTC,0.224
6,CGAGGGGC,-0.388
7,CGCAGGAC,0.05
8,CATATATG,0.0464
9,TAGGCTGA,-0.0515
10,AAAAGTTG,0.133
11,TAGGGCCA,-0.121
12,ACCGTCAG,-0.0456
13,CAAACTCA,0.00685
14,CGCCAATC,-0.0599
15,CGCGACTA,-0.0358
16,GGCCCTGA,-0.176
17,TATGTTAA,0.238
18,CGCTCTAA,-0.0524
19,GACGAGAC,-0.0005
20,AAAAGACT,-0.106
21,AATGTCAT,0.153
22,TACTTGGA,0.167
23,ATACAGCA,0.146
24,CAGCCGGG,-0.173
25,GTGACGGA,-0.0485

row,Sequence,PBM E-score
1,ACTAGCGG,-0.0103
2,GGTGAAGA,-0.0754
3,ATCGGACG,-0.0124
4,CAAGGAAA,0.162
5,TAGAGTCA,-0.252
6,GTTTTCCA,0.215
7,ATGCTCCC,-0.164
8,CATCGTCG,-0.242
9,ACTGCACA,0.0403
10,ATGCCCAT,-0.171
11,CGAAGACC,-0.00496
12,CTTTGAGC,-0.168
13,ATCCCCGG,-0.169
14,CTCTTAAG,-0.0228
15,AGTCGCCA,-0.275
16,ATCCTGCG,-0.129
17,CATTATTC,0.213
18,TCCTTCCA,-0.0913
19,GGGAAGAA,0.256
20,ATAGGTCG,-0.11
21,ACACAAGG,-0.046
22,AGACAGCT,-0.131
